Over roughly 33,000 sequences, “E-score (-0.5 to 0.5)” has its median near -0.011; the highest 2% begin near 0.28. This is one part of the list.
Target: T1, Gcr1 (UniProt P07261)
T1 sequence: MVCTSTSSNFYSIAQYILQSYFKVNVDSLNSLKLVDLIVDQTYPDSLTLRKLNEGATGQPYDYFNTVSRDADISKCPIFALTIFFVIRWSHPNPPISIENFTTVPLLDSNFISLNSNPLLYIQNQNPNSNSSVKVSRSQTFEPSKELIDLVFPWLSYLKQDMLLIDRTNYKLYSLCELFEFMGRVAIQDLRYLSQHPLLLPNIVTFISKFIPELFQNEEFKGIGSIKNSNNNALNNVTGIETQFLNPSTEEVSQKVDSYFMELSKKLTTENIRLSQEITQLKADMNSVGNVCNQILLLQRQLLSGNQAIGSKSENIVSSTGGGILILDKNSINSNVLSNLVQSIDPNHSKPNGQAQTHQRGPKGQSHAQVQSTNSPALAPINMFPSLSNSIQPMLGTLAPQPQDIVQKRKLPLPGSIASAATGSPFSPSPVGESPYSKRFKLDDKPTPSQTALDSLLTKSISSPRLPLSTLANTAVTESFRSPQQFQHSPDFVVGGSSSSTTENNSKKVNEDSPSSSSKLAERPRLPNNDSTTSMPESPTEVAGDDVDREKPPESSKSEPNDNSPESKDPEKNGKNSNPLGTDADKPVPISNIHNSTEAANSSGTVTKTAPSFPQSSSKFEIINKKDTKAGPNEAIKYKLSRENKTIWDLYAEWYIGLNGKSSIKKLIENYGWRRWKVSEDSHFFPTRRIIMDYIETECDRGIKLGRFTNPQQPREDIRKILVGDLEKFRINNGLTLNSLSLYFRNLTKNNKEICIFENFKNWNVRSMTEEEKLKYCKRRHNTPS
Experiment: PBM E-score (8-mer binding enrichment) (E-score (-0.5 to 0.5)); higher = stronger / more preferred TF binding; most listed sequences are background and not binding sites
Details: protein concentration: 100 nM; construct: GST-full length
In short: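 For each ungapped eight-base word taken together with its reverse complement, the Universal PBM Analysis Suite assigned an E-score. Binding data came from GST-tagged yeast transcription factors, applied at about 100-200 nM, on universal all-10-mer Agilent arrays made double-stranded by primer extension. Fluorescent anti-GST marked bound protein, and scans were normalised with masliner.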

Sequence | PBM E-score
ACATGGCG | -0.158
AAGTTAAA | 0.148
ATAGGTAG | 0.267
CTTCTGAA | 0.147
ACGGGCTA | 0.0471
GCTTGCAA | -0.242
TAATCTCA | -0.0789
CACTCGAC | -0.0291
AGCCCACA | -0.0506
ACATGGAC | -0.061
ATGCACCC | -0.0509
GGACAAAA | -0.0366
CGGCATTC | -0.173
GGGGTATA | -0.187
TCATTTCA | -0.0344
CAAATGTC | -0.137
CTGAGAAC | 0.0345
ATTGGCGC | 0.107
CTGGGAAG | 0.0187
AAAGGGCC | -0.144
ATGTAAAC | -0.0452
ACTCCCGC | 0.113

Sequence | PBM E-score
ACACGCCA | -0.163
CGGATCTA | 0.0614
CTCTTACA | 0.00789
CGGAGCAA | -0.251
ATCATCAT | -0.0878
GAATAGGA | 0.1
CATCAAAA | 0.101
ACAGATAT | -0.00642
AAACTAAG | 0.12
ACGTTTCG | -0.204
AAAGGACT | -0.149
GCCCGCAA | 0.0623
GTTCGCCA | -0.16
CGTCACCA | 0.0162
AAACCTGC | 0.0948
CCCCGACC | -0.117
AATAATGC | 0.00639
CGGCAACA | 0.206
GGGTGTCA | -0.0813
TACGCCTA | 0.062
AGAGTTTG | 0.00252
AGCTGTCC | -0.103

Sequence | PBM E-score
ACTAAAAC | 0.103
TACGAAAA | 0.112
TAGAGCGA | -0.0317
CAATGATG | -0.0198
CCCGGTGA | 0.121
ACGTAACC | -0.0202
GGACATTA | 0.0667
GGATGGTA | -0.0195
AGCCCAAC | 0.0796
CGTCGCAG | 0.0557
ATCGACTC | -0.171
AGTCATCA | -0.152
AACGCATT | -0.0176
GGAGATAC | -0.0448
CGTGACAA | 0.0429
CTTCCCGA | 0.0389
ATCTTGAG | 0.0742
GGGACGAA | 0.112
CAGGGCGA | -0.176
CATCTTGA | 0.105
ACTGACCG | -0.231
ATGGCCCA | -0.203

Sequence | PBM E-score
TAAAAGTA | 0.0173
AATCAAGA | 0.042
CCCCTCCC | -0.031
GCATGCGA | -0.03
GCCGTGAC | -0.123
GGTTCTGA | 0.0841
CGTTACGA | 0.00915
ATGATTAG | -0.101
ATAGGACG | 0.114
AGCCACCT | 0.0295
GGCTACCA | 0.17
GATTTCAA | -0.039
TGATAAAA | -0.00242
CCAGCGAA | -0.0416
CAGGTGAA | 0.0398
CAGATCCA | 0.185
GCCGCCTA | 0.204
AGTTATCG | 0.0927
CGTGGGGC | 0.00219
AAGCTAAT | -0.00162

Reference: the supplement of paper PMC3334620
